In publication PMC7284315 one finds binding data, which are given here for one substance.

Protein sequences, listed by entry. Tags and fused reporters are not part of them.
UniProt P49674: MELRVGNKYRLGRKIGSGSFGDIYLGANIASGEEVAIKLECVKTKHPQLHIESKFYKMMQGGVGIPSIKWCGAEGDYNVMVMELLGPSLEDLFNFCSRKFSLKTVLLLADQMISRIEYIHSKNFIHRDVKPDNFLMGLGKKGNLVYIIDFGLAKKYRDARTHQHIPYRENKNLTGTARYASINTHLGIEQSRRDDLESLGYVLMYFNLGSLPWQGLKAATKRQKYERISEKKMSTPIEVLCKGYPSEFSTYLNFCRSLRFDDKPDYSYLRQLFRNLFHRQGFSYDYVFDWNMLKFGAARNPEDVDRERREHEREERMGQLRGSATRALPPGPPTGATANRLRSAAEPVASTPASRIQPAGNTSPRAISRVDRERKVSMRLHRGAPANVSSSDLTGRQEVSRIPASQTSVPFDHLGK

Changes are numbered by the printed parent chain. No constants are given. Whether binding was seen depends on the method and setting. Binding seen in cells or lysates may run through a third protein. Some binding calls cover weakened binding; strength is not graded here. Tags and fused reporters may be left off the sequences shown.

The target of experiment [1] is T1, FLAG-FAM83H^D236A (human) (UniProt Q6ZRV2).
T1 sequence: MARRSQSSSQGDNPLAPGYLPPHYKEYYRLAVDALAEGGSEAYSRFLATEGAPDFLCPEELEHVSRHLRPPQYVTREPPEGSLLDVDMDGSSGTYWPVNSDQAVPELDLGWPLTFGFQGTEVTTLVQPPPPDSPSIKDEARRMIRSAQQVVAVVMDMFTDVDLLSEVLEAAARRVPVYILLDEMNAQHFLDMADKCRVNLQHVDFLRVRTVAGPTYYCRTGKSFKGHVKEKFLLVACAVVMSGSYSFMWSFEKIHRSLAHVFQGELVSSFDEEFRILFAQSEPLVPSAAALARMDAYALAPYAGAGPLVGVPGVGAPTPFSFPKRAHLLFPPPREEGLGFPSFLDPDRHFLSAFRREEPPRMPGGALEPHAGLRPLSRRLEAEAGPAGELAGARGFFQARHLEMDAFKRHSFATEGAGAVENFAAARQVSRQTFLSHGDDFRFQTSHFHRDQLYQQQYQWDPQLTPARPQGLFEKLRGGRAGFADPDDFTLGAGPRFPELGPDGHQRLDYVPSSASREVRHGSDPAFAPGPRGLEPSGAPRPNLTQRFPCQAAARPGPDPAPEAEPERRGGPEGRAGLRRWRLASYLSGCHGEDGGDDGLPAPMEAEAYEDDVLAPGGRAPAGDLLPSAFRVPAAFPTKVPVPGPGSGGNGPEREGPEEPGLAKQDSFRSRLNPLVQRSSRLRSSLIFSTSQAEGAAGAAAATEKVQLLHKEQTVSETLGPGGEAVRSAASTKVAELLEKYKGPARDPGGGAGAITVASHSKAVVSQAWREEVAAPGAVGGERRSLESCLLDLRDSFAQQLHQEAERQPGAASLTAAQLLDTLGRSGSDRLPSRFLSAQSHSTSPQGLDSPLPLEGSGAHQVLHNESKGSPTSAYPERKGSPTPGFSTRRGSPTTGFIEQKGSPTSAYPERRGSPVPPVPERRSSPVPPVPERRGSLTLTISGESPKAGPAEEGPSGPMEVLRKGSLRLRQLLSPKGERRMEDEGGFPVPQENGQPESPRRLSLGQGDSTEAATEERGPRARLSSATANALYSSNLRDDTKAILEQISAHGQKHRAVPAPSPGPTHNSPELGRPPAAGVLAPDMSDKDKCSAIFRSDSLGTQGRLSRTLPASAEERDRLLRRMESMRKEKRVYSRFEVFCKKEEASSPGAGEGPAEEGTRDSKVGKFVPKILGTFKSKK
Description: co-IP; anti-FLAG agarose IP from lysates of U2OS FAM83H-/- cells transiently transfected with FLAG-FAM83H constructs, 1 h at 4 °C (16 h in Fig. 6C); immunoblot of endogenous preys.

For experiment [2], the target named is T2, FLAG-FAM83H^WT (U2OS FAM83H-/-) (human) (UniProt Q6ZRV2).
T2 sequence: T1 sequence with A236D
The description is as above.

“protein kinase CK1 isoform ε (CK1ε), endogenous (from UniProt P49674 1-416) (enzyme)”: the binding result is reported as “no binding” in experiment [1] and “binds” in experiment [2].
